Source: PubChem BioAssay AID504466 (National Center for Advancing Translational Sciences (NCATS), 2011)
Hit rate of the full screen: of about 330,000 compounds, about 4,200 (1.3%) were called active. This list was built around the results that the source calls inconclusive (neither active nor inactive); the mix of calls is not that of the screen. Calls come from the whole dose curve; as a rule, active = well fitted activation curve with a large enough effect; inconclusive = small, poorly fitted or top-dose-only effect; inactive = no such curve, though single readings can be large or run the other way. A potency beside an inconclusive call is a rough fit, not a confirmed value.
Potency is the fitted concentration of half-maximal effect; tags give direction and shape of the fitted curve.

Assay: qHTS screen for small molecules that induce genotoxicity in human embryonic kidney (HEK293T) cells expressing luciferase-tagged ELG1; note: nearly all actives have a fitted effect of over 60% in size; for activity change, positive = activation: % of control where 0% means no effect
Settings: HEK293T ELG1-luciferase reporter, luminescence, 16 h; series mostly up to 46 µM; activity change, positive = activation: at the top concentration
Summary of the method: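 HEK293T cells expressing luciferase-tagged ELG1 were treated with compound or DMSO for 16 hr at 37°C. Luciferase activity was then read after 30 min with ONE-Glo at room temperature; rising signal flags genetic stress.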
For `COc1ccc(NC(=O)CCC(=O)N(Cc2ccc(OC)c(OC)c2)c2nccs2)c(OC)c1`, the “activity change, positive = activation” value was inactive: 0.663%.
For `CCOc1ccc(-c2ccc(SC)nn2)cc1`, the Potency was inconclusive: 0.13 µM [activator, single point].
For `Cn1c(=O)cc(SCC(=O)N2CCCC2)c2cc(Cl)ccc21`, the Potency was inconclusive: 20.6 µM [activator, partial curve].
In the case of `CC(=O)Nc1ccc(/C=C2\CCc3ccccc3C2=O)cc1`, the Potency is reported as inconclusive: 2.59 µM [activator, full curve].
In the case of `Cc1c(C)n(CCc2ccccc2)c2ncnc(NN)c12`, the “activity change, positive = activation” value is reported as inactive: -3%.
For `COc1ccc(NC(=O)Cn2ncn3nc(-c4ccc(OC)cc4)cc3c2=O)cc1`, the Potency was inconclusive: 10.3 µM [activator, partial curve, poor fit].
With `CC(C)c1ccc(NC(=S)N2CCCC2)cc1` the Potency was inconclusive: 6.51 µM [activator, partial curve].
With `COc1ccc(-c2nc(-c3cccs3)no2)cc1` the Potency was inconclusive: 0.651 µM [activator, full curve].
For `COc1cc(/C=N/N=C(\N)c2nonc2N)cc(OC)c1OC`, the Potency was inconclusive: 18.3 µM [activator, single point].
In the case of `CCN(CC)C(=O)CCNS(=O)(=O)c1ccc(C)cc1`, the “activity change, positive = activation” value is reported as inactive: 0.0565%.
With `Cc1cc(NC(=S)N(Cc2cccc(Br)c2)CC2CCC(C(=O)O)CC2)ccc1Cl` (stereo not given) the “activity change, positive = activation” value was inactive: 0.258%.
With `COc1cccc(CC2(CO)CCCN(CC3=Cc4cc(Cl)ccc4OC3)C2)c1` (stereo not given) the “activity change, positive = activation” value was inactive: -4.5%.
With `O=C(N/N=C/c1ccc(OCc2ccccc2)cc1)c1ccncc1` the Potency was inconclusive: 23.1 µM [activator, partial curve, poor fit].
With `Cc1cc(S(=O)(=O)N2CCOCC2)ccc1OCC(=O)Nc1ccccc1C(F)(F)F` the Potency was inconclusive: 32.6 µM [activator, partial curve, poor fit].
In the case of `COc1ccc(/C=C/C2=NNC(=O)CC2)cc1`, the Potency is reported as inconclusive: 12.6 µM [activator, single point].
With `Cc1nc2scc(C)n2c(=O)c1S(=O)(=O)Nc1ccc(OC(F)(F)F)cc1` the activity change, positive = activation was inactive: -1.41% [at 9.26 µM].
In the case of `COc1ccccc1C(=O)Oc1ccc(C(C)(C)C)cc1`, the “activity change, positive = activation” value is reported as inactive: 4.16%.
In the case of `Cc1nc2oc3ccc(F)cc3c(=O)c2cc1C(=O)NC(C)(C)C`, the Potency is reported as inconclusive: 20.6 µM [activator, partial curve, poor fit].
In the case of `c1ccc(-c2n[nH]c(-c3ccccn3)n2)nc1`, the Potency is reported as active: 6.51 µM.
With `O=C(c1cc(-c2ccc3c(c2)OCO3)on1)N1CCOCC1` the Potency was active: 0.58 µM.
In the case of `CCN(CC(=O)Nc1cc(Cl)ccc1C)C(=O)C1COc2ccccc2O1` (stereo not given), the “activity change, positive = activation” value is reported as inactive: -0.0225%.
With `Clc1ccc(-c2cc3ccccc3[nH]2)cc1` the Potency was inconclusive: 20.6 µM [activator, partial curve, poor fit].
In the case of `CC(C)S(=O)(=O)c1csc(C(=O)Nc2ccc(F)cc2)c1N`, the Potency is reported as active: 2.91 µM.
In the case of `CCCS(=O)(=O)NCc1cn2cccc(C)c2n1`, the “activity change, positive = activation” value is reported as inactive: 4.04%.
With `COc1ccccc1C(=O)NC(=O)COc1ccc(Cl)cc1Cl` the “activity change, positive = activation” value was inactive: 0.699%.
In the case of `Cc1ccc(OCc2nc(-c3ccccn3)no2)c(Br)c1`, the Potency is reported as active: 0.326 µM.
For `COc1ccc(C(=O)N=c2sc3c(C)ccc(OC)c3n2C)cc1`, the Potency was active: 0.461 µM.
For `N#CC(c1ccccc1O)N1N=C(c2ccccc2)CC1c1ccccc1` (stereo not given), the Potency was inconclusive: 9.2 µM [activator, partial curve, poor fit].
In the case of `Oc1cc(-c2ccc(N3CCCCC3)nc2)cc2cccnc12`, the Potency is reported as active: 18.3 µM.
For `O=C(Nc1ccc(Cl)cc1)Nc1ccc2c(c1)OCO2`, the Potency was active: 4.11 µM.
In the case of `CCOc1ccc(/C=N/Nc2ccc(C(F)(F)F)cc2[N+](=O)[O-])cc1O`, the Potency is reported as inconclusive: 18.4 µM [activator, partial curve, poor fit].
In the case of `CCC(C)Nc1nc2ccccc2n2c(C)nnc12` (stereo not given), the Potency is reported as inconclusive: 18.3 µM [activator, partial curve].
In the case of `O=C(NNC(=S)Nc1ccccc1Cl)c1ccccc1Cl`, the “activity change, positive = activation” value is reported as inactive: -3.23%.
For `Cc1nnc(Oc2ccccc2F)c2ccccc12`, the Potency was inconclusive: 11.2 µM [activator, partial curve, poor fit].
For `CCOc1cc(Br)c(C=O)cc1OCC`, the Potency was inconclusive: 20.6 µM [activator, partial curve, poor fit].
In the case of `COCC(=O)Nc1ccc(C(C)C)cc1`, the Potency is reported as inconclusive: 11.2 µM [activator, partial curve, poor fit].
With `O=C(CSCc1cc(=O)n2ccsc2n1)Nc1ccc(F)cc1` the “activity change, positive = activation” value was inactive: -1.04%.
In the case of `N/C(=N\N=C/c1ccc(Br)cc1)N/N=C\c1ccc(Br)cc1`, the “activity change, positive = activation” value is reported as inactive: 2.12%.
In the case of `CN(c1ccccc1)S(=O)(=O)c1ccc(C(=O)NCc2ccccc2F)cc1`, the “activity change, positive = activation” value is reported as inactive: -0.0902%.
For `N/C(=N\OC(=O)c1ccc2c(c1)OCO2)c1cccnc1`, the Potency was inconclusive: 6.51 µM [activator, partial curve, poor fit].
In the case of `CNC(=S)N/N=C/c1c(C)nn(-c2ccccc2)c1Cl`, the Potency is reported as inconclusive: 25.9 µM [activator, single point].
For `O=C(Oc1cccc(Nc2ncnc3ccccc23)c1)c1ccccc1Cl`, the Potency was inconclusive: 16.4 µM [activator, partial curve].
In the case of `COc1cccc(COc2ncnc3sccc23)c1`, the “activity change, positive = activation” value is reported as inactive: 3.84%.
In the case of `COc1ccc(C(=O)Nc2cnc(NC(=O)c3cccs3)cc2C)cc1`, the Potency is reported as inconclusive: 5.01 µM [activator, single point].
In the case of `NCCNC(=O)Cc1ccc(NC(=O)Cc2ccc(Nc3ncnc4c3ncn4[C@@H]3O[C@H](CO)[C@@H](O)[C@H]3O)cc2)cc1`, the Potency is reported as inconclusive: 0.326 µM [activator, full curve, poor fit].
In the case of `Cc1cc(/C(N)=N/OC(=O)c2cccc(Cl)c2)no1`, the Potency is reported as inconclusive: 23.1 µM [activator, partial curve, poor fit].
In the case of `COc1ccc2c(c1)C=CC1(O2)N(CCO)c2ccccc2C1(C)C` (stereo not given), the Potency is reported as inconclusive: 29.1 µM [activator, partial curve, poor fit].
For `C=CCOc1ccc(C(=O)n2cc(C(=O)OC)c3ccccc32)cc1`, the “activity change, positive = activation” value was inactive: 9.42%.
With `O=C(O)c1cccc(N/N=C/c2cn(-c3ccccc3)nc2-c2cccs2)c1` the Potency was inconclusive: 7.3 µM [activator, partial curve].
With `Nc1cccc2cc(-c3ccccc3)oc12` the Potency was inconclusive: 5.8 µM [activator, partial curve, poor fit].
For `Cc1cc(C(=O)Nc2ccc(Br)cn2)sc1C`, the Potency was inconclusive: 2.59 µM [activator, partial curve].
For `CSc1nnc(CNS(=O)(=O)c2ccc(Br)cc2)n1C`, the Potency was inconclusive: 6.51 µM [activator, single point].
In the case of `CCCC(=O)OCCNc1cc(SCc2ccco2)c2nonc2c1[N+](=O)[O-]`, the Potency is reported as inconclusive: 29.1 µM [activator, partial curve, poor fit].
With `O=C(CSc1nnc(-c2ccc(O)cc2)o1)Nc1cccc(O)c1` the Potency was inconclusive: 4.61 µM [activator, full curve].
In the case of `CC(=O)c1ccc(OCCn2c(SCC(=O)O)nc3ccccc32)cc1`, the “activity change, positive = activation” value is reported as inactive: -6.86%.
In the case of `O=C(Nc1ccccc1)c1ccc2c(c1)OCO2`, the Potency is reported as active: 9.2 µM.
With `CC(=O)NNC(=O)c1sc(=S)n2c1[nH]c(=O)c1sccc12` the “activity change, positive = activation” value was inactive: -0.666%.
In the case of `COc1cc(/C(C)=N\NC(N)=S)cc(OC)c1OC`, the Potency is reported as inconclusive: 29.1 µM [activator, partial curve, poor fit].
For `Cc1cc(C)nc(Nc2ccc(C)c([N+](=O)[O-])c2)n1`, the Potency was inconclusive: 20.6 µM [activator, partial curve, poor fit].
In the case of `O=C(Cc1ccccc1)c1nc2ccccc2s1`, the Potency is reported as inconclusive: 11.6 µM [activator, partial curve].
With `CC[C@H](C)[C@H](NC(=O)c1ccccc1)C(=O)NC(CC(=O)O)c1ccc(F)cc1` (stereo not given in full) the “activity change, positive = activation” value was inactive: -0.702%.
In the case of `CCn1c(SCC(=O)Nc2ccccc2Cl)nnc1C1CC1`, the “activity change, positive = activation” value is reported as inactive: 7.07%.
With `Cc1ccc(NC(=O)c2sc3nc(C)cc(C)c3c2N)cc1` the Potency was inconclusive: 1.64 µM [activator, partial curve].
For `O=C1NC(=Nc2ccc(O)cc2)S/C1=C\C=C\c1ccco1`, the Potency was inconclusive: 20.6 µM [activator, single point].
In the case of `Cc1cccc(-c2noc(Cc3ccc(Cl)cc3)n2)c1`, the Potency is reported as active: 18.4 µM.
With `CC(NS(=O)(=O)c1ccc(Cl)c(Cl)c1)C(=O)Nc1cccnc1` (stereo not given) the “activity change, positive = activation” value was inactive: 0.24%.
For `O=C(/C=C\N1CCOCC1)c1ccc(Br)cc1`, the Potency was inconclusive: 12.6 µM [activator, single point].
With `O=C(Nc1nc2c(s1)C(=O)CCC2)c1ccccc1` the Potency was inconclusive: 2.06 µM [activator, full curve].
In the case of `CNC(=O)c1sc(-c2ccccc2)nc1C`, the Potency is reported as inconclusive: 20.6 µM [activator, single point].
For `COC(=O)c1c(C)[nH]c(C(=O)/C=C/c2ccc(C)cc2)c1C`, the Potency was inconclusive: 13 µM [activator, partial curve, poor fit].
For `CCC(C)c1c(O)nc(SCC(=O)c2ccccc2)[nH]c1=O` (stereo not given), the Potency was inconclusive: 29.1 µM [activator, single point].
For `COc1cccc(OC)c1C(=O)Nc1nnc(-c2ccc(F)cc2)s1`, the “activity change, positive = activation” value was inactive: 1.95%.
With `CN(C)c1ccc(/C=c2\sc3n(c2=O)CCCN=3)cc1` the Potency was inconclusive: 0.184 µM [activator, full curve].
In the case of `CC(=O)NC(c1ccc(C(C)C)cc1)c1ccc2cccnc2c1O` (stereo not given), the Potency is reported as inconclusive: 4.11 µM [activator, full curve, poor fit].
With `COc1c(C)cccc1C(=O)NC(=S)Nc1cccc2nsnc12` the Potency was inconclusive: 20.6 µM [activator, partial curve, poor fit].
